{"source": "patent US20240174727A1", "about": "“LONG-ACTING NATRIURETIC PEPTIDES AND USES THEREOF” (Eli Lilly and Company, priority 2022, published 2024)", "tested_on": "plasma cGMP", "assay": "In vivo monkey studies, plasma cGMP ELISA", "parameters": "species or system male cynomolgus monkeys", "conditions": "for Net cGMP (nM) Change from Baseline 8 h: 8 h postdose; for Net cGMP (nM) Change from Baseline 12 h: 12 h postdose; for Net cGMP (nM) Change from Baseline 24 h: 24 h postdose; for Net cGMP (nM) Change from Baseline 48 h: 48 h postdose; for Net cGMP (nM) Change from Baseline 72 h: 72 h postdose; for Net cGMP (nM) Change from Baseline 96 h: 96 h postdose; for Net cGMP (nM) Change from Baseline 120 h: 120 h postdose; for Net cGMP (nM) Change from Baseline 144 h: 144 h postdose; for Net cGMP (nM) Change from Baseline 168 h: 168 h postdose; for Net cGMP (nM) Change from Baseline 0.25 h: 0.25 h postdose; for Net cGMP (nM) Change from Baseline 0.5 h: 0.5 h postdose; for Net cGMP (nM) Change from Baseline 1 h: 1 h postdose; for Net cGMP (nM) Change from Baseline 2 h: 2 h postdose; for Net cGMP (nM) Change from Baseline 4 h: 4 h postdose", "method": "In vivo monkey studies were conducted as described in detail below. Young adult-to-adult male cynomolgus monkeys were given a single dose subcutaneously (SC). Blood was collected predose and at various pre-determined timepoints throughout the study period. Aliquot of cynomolgus monkey plasma was received for cyclic cGMP (cGMP) measurement and stored at −80° C. prior to use.\nControl plasma was made for determining the recovery rate of spike-in cGMP using Enzo cGMP complete ELISA kit (Enzo Life Sciences, Inc, Farmingdale, NY, cat no. ADI-901-164). Briefly, blood from male Sprague Dawley rats (Inotiv, Indianapolis, IN), about 7 months old, was collected in a BD Vacutainer EDTA tube (Becton Dickinson, Franklin Lakes, NJ, cat no. BD-367856) with volume of approximate 4 mL through retro orbital bleeding. Plasma was prepared by spinning the tube in an Eppendorf Refrigerated Centrifuge 5810R (Brinkman Instruments, Inc, Westbury, NY) at 3500 rpm (3000×g) for 10 min at 4° C. Plasma was collected as Positive Control plasma. Cyclic GMP (cGMP standard from Enzo cGMP complete ELISA kit) was added to the positive control plasma at a final concentration of additional 40 nM. Positive Control and Spiked-in Control plasma were aliquoted and stored at −80° C.\nThe cGMP content was measured using the Enzo cGMP complete ELISA kit following the manufacturer's directions with modifications as described below. The cGMP standards provided in the kit were diluted 1:3 ranging from 50 nM to 0.023 nM in 1× assay buffer that was diluted in water from 2× assay buffer provided in the kit. The cGMP standards ([…]) were transferred to a 96-well polypropylene plate (Thermo Scientific, cat no. 442587).\nPlasma samples were thawed from −80° C. and diluted 1:20 in 1× assay buffer in the above plate with a final volume of 150 μL. Assay buffer was added (150 μL) for both a non-specific binding control (in the absence of cGMP antibody) and a maximum binding control (in the absence of competing cGMP) in duplicate wells. Positive Control and Spiked-in Control plasma were diluted 1:20 in 1× assay buffer with a final volume of 150 μL in duplicate wells of the above plate. All diluted plasma was mixed by pipetting up and down several times.\nAcetylation reagent mix was prepared by adding 1-part of acetic anhydride into 2-parts of triethylamine provided in the kit and mixing well using Vortex (Scientific Industries, Inc, Bohemia, NY). All controls, standards, and plasma samples were acetylated by adding 15 μL of acetylation reagent mix into the plate, one column at a time, and shaking for 1 min on a Titer Plate Shaker (Lab-Line Instrument, Inc., Melrose Park, IL) at room temperature. The plate was shaken for an additional 1 min following the acetylation of the last column to ensure the reaction was completed.\nAcetylated controls, standard and plasma samples were transferred (100 μL) to an ELISA plate (n=1). Then 50 μL of cGMP conjugate were added to each well followed by the addition of 50 μL cGMP antibody to each well except for two non-specific binding wells, in which 50 μL of 1× assay buffer were added. The plate was then sealed and shaken for 2 h at room temperature on the plate shaker. Following this incubation, the plate was washed five times using 200 μL of 1× wash buffer diluted in water from 5× wash buffer provided in the kit. Then, 200 μL of para-Nitrophenylphosphate (pNpp) were added to each well. The plate was sealed with a new plate sealer and shaken in dark for 1 h at room temperature on the plate shaker. Finally, 50 μL of stop solution were added to each well to stop the enzyme reaction. The plate was then read at 405 nm using SpectraMax Plus (Molecular Devices, San Jose, CA).\nThe mean absorbance at 405 nm (O.D. 405 nm) for the non-specific binding controls was subtracted from the O.D. 405 nm of all samples. The subtracted O.D. 405 nm of all samples were then normalized with the mean subtracted O.D. 405 nm of the maximum binding controls as B/B0%. […]", "key": {"[1]": {"conditions": "dose 100 nmol/kg, monkey plasma"}, "[2]": {"conditions": "dose 300 nmol/kg, monkey plasma"}, "[3]": {"conditions": "dose 1000 nmol/kg, monkey plasma"}}, "note": "For at least one compound, name, drawing or mass did not settle the structure. Some entries repeat one wording, which the source may state once for all of them.", "data": [{"molecule": "CC[C@H](C)[C@@H]1NC(=O)[C@H](CCCNC(=N)N)NC(=O)[C@H](CC(=O)O)NC(=O)[C@H]([C@@H](C)CC)NC(=O)[C@H](CCCNC(=N)N)NC(=O)CNC(=O)CNC(=O)[C@H](Cc2ccccc2)NC(=O)[C@@H](NC(=O)[C@H](CO)NC(=O)[C@H](CO)NC(=O)[C@H](CCCNC(=N)N)NC(=O)[C@H](CCCNC(=N)N)NC(=O)[C@H](Cc2ccncc2)NC(=O)[C@H](CO)NC(=O)CNC(=O)[C@H](CCCCN)NC(=O)[C@H](CCC(=O)O)NC(=O)[C@H](CCCCN)NC(=O)[C@H](CCC(=O)O)NC(=O)[C@H](CCCCN)NC(=O)[C@H](CCC(=O)O)NC(=O)CC[C@H](NC(=O)CCCCCCCCCCCCCCCCCCC(=O)O)C(=O)O)CSCSC[C@@H](C(=O)N2CCC[C@H]2C(=O)N[C@@H](CO)C(=O)N[C@@H](Cc2ccccc2)C(=O)N[C@@H](CCCNC(=N)N)C(=O)N[C@@H](Cc2c[nH]cn2)C(=O)NCC(=O)NCC(=O)N2CCC[C@H]2C(=O)N[C@@H](CO)C(=O)N[C@@H](CO)C(=O)NCC(=O)N[C@@H](C)C(=O)N2CCC[C@H]2C(=O)N2CCC[C@H]2C(=O)N2CCC[C@H]2C(=O)N[C@@H](CO)C(N)=O)NC(=O)CNC(=O)[C@H](CC(C)C)NC(=O)CNC(=O)[C@H](CO)NC(=O)[C@H](CCC(N)=O)NC(=O)[C@H](Cc2c[nH]cn2)NC(=O)CNC1=O", "note": "[Example 2]", "values": [{"measurement": "Net cGMP (nM) Change from Baseline 8 h", "setting": "[1]", "result": 6.66, "unit": "nM"}, {"measurement": "Net cGMP (nM) Change from Baseline 12 h", "setting": "[1]", "result": 6.31, "unit": "nM"}, {"measurement": "Net cGMP (nM) Change from Baseline 24 h", "setting": "[1]", "result": 10.19, "unit": "nM"}, {"measurement": "Net cGMP (nM) Change from Baseline 48 h", "setting": "[1]", "result": 5.05, "unit": "nM"}, {"measurement": "Net cGMP (nM) Change from Baseline 72 h", "setting": "[1]", "result": 4.47, "unit": "nM"}, {"measurement": "Net cGMP (nM) Change from Baseline 96 h", "setting": "[1]", "result": 8.44, "unit": "nM"}, {"measurement": "Net cGMP (nM) Change from Baseline 120 h", "setting": "[1]", "result": 4.3, "unit": "nM"}, {"measurement": "Net cGMP (nM) Change from Baseline 144 h", "setting": "[1]", "result": 1.77, "unit": "nM"}, {"measurement": "Net cGMP (nM) Change from Baseline 168 h", "setting": "[1]", "result": 7.01, "unit": "nM"}, {"measurement": "Net cGMP (nM) Change from Baseline 0.083 h", "setting": "dose 300 nmol/kg, 0.083 h postdose, monkey plasma", "result": 6.7, "unit": "nM"}, {"measurement": "Net cGMP (nM) Change from Baseline 0.25 h", "setting": "[2]", "result": 33, "unit": "nM"}, {"measurement": "Net cGMP (nM) Change from Baseline 0.5 h", "setting": "[2]", "result": 43.45, "unit": "nM"}, {"measurement": "Net cGMP (nM) Change from Baseline 1 h", "setting": "[2]", "result": 37.82, "unit": "nM"}, {"measurement": "Net cGMP (nM) Change from Baseline 2 h", "setting": "[2]", "result": 32.01, "unit": "nM"}, {"measurement": "Net cGMP (nM) Change from Baseline 4 h", "setting": "[2]", "result": 24.72, "unit": "nM"}, {"measurement": "Net cGMP (nM) Change from Baseline 8 h", "setting": "[2]", "result": 37.43, "unit": "nM"}, {"measurement": "Net cGMP (nM) Change from Baseline 12 h", "setting": "[2]", "result": 36.62, "unit": "nM"}, {"measurement": "Net cGMP (nM) Change from Baseline 24 h", "setting": "[2]", "result": 37.61, "unit": "nM"}, {"measurement": "Net cGMP (nM) Change from Baseline 48 h", "setting": "[2]", "result": 24.8, "unit": "nM"}, {"measurement": "Net cGMP (nM) Change from Baseline 72 h", "setting": "[2]", "result": 19.18, "unit": "nM"}, {"measurement": "Net cGMP (nM) Change from Baseline 96 h", "setting": "[2]", "result": 23.07, "unit": "nM"}, {"measurement": "Net cGMP (nM) Change from Baseline 120 h", "setting": "[2]", "result": 17.55, "unit": "nM"}, {"measurement": "Net cGMP (nM) Change from Baseline 144 h", "setting": "[2]", "result": 15.69, "unit": "nM"}, {"measurement": "Net cGMP (nM) Change from Baseline 168 h", "setting": "[2]", "result": 18.7, "unit": "nM"}, {"measurement": "Net cGMP (nM) Change from Baseline 0.25 h", "setting": "[3]", "result": 57.63, "unit": "nM"}, {"measurement": "Net cGMP (nM) Change from Baseline 0.5 h", "setting": "[3]", "result": 98.81, "unit": "nM"}, {"measurement": "Net cGMP (nM) Change from Baseline 1 h", "setting": "[3]", "result": 103.78, "unit": "nM"}, {"measurement": "Net cGMP (nM) Change from Baseline 2 h", "setting": "[3]", "result": 64, "unit": "nM"}, {"measurement": "Net cGMP (nM) Change from Baseline 4 h", "setting": "[3]", "result": 10.35, "unit": "nM"}, {"measurement": "Net cGMP (nM) Change from Baseline 8 h", "setting": "[3]", "result": 41.22, "unit": "nM"}, {"measurement": "Net cGMP (nM) Change from Baseline 12 h", "setting": "[3]", "result": 31.77, "unit": "nM"}, {"measurement": "Net cGMP (nM) Change from Baseline 24 h", "setting": "[3]", "result": 38.08, "unit": "nM"}, {"measurement": "Net cGMP (nM) Change from Baseline 48 h", "setting": "[3]", "result": 27.41, "unit": "nM"}, {"measurement": "Net cGMP (nM) Change from Baseline 72 h", "setting": "[3]", "result": 22.49, "unit": "nM"}, {"measurement": "Net cGMP (nM) Change from Baseline 96 h", "setting": "[3]", "result": 25.37, "unit": "nM"}, {"measurement": "Net cGMP (nM) Change from Baseline 120 h", "setting": "[3]", "result": 19.01, "unit": "nM"}, {"measurement": "Net cGMP (nM) Change from Baseline 144 h", "setting": "[3]", "result": 19.69, "unit": "nM"}, {"measurement": "Net cGMP (nM) Change from Baseline 168 h", "setting": "[3]", "result": 20.33, "unit": "nM"}, {"measurement": "net cGMP levels (result in words)", "setting": "monkeys, single SC dose, plasma", "result": "increased net cGMP levels"}]}]}
